Experimental data published in the supplement of paper PMC8728848.
Some of the results follow.

Assays:
Assay in all cases: glycan array binding signal (z-score within array); higher = stronger binding
Settings in all cases: glycan notation: IUPAC condensed, linker removed
[1] = target: Gal(b1-4)GlcNAc(b1-2)Man(a1-3)[Gal(b1-4)GlcNAc(b1-2)Man(a1-6)][Gal(b1-4)GlcNAc(b1-4)]Man(b1-4)GlcNAc(b1-4)[Fuc(a1-6)]GlcNAc
How it was run: (§1)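 Arrays were curated from the Consortium for Functional Glycomics database, 3228 in total, and kept only where the protein sequence was available. Binding is expressed as a within-array Z-score. This score was averaged across arrays of the same protein sequence at different concentrations or buffers and across linkers, and negative values can be read as non-binding.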

[2] = target: Gal(b1-4)GlcNAc(b1-2)Man(a1-3)[Gal(b1-4)GlcNAc(b1-2)Man(a1-6)][GlcNAc(b1-4)]Man(b1-4)GlcNAc(b1-4)[Fuc(a1-6)]GlcNAc
How it was run: as §1

[3] = target: Gal(b1-4)GlcNAc(b1-2)Man(a1-3)[Gal(b1-4)GlcNAc(b1-2)][GlcNAc(b1-4)]Man(b1-4)GlcNAc(b1-4)GlcNAc
How it was run: as §1

[4] = target: Gal(b1-4)GlcNAc(b1-2)Man(a1-3)[GlcNAc(b1-2)Man(a1-6)]Man(b1-4)GlcNAc(b1-4)GlcNAc
How it was run: as §1

[5] = target: Gal(b1-4)GlcNAc(b1-2)Man(a1-3)[GlcNAc(b1-4)][Gal(b1-4)GlcNAc(b1-2)Man(a1-6)]Man(b1-4)GlcNAc(b1-4)GlcNAc
How it was run: as §1

[6] = target: Gal(b1-4)GlcNAc(b1-2)Man(a1-3)[Man(a1-6)]Man(b1-4)GlcNAc(b1-4)GlcNAc
How it was run: as §1

[7] = target: Gal(b1-4)GlcNAc(b1-2)Man(a1-6)Man(b1-4)GlcNAc(b1-4)GlcNAc
How it was run: as §1

[8] = target: Gal(b1-4)GlcNAc(b1-2)Man(a1-6)[GlcNAc(b1-2)Man(a1-3)]Man(b1-4)GlcNAc(b1-4)GlcNAc
How it was run: as §1

[9] = target: Gal(b1-4)GlcNAc(b1-2)Man(a1-6)[Man(a1-3)]Man(b1-4)GlcNAc(b1-4)GlcNAc
How it was run: as §1

[10] = target: Gal(b1-4)GlcNAc(b1-2)[Gal(b1-4)GlcNAc(b1-4)]Man(a1-3)[Gal(b1-4)GlcNAc(b1-2)Man(a1-6)]Man(b1-4)GlcNAc(b1-4)GlcNAc
How it was run: as §1

[11] = target: Gal(b1-4)GlcNAc(b1-2)[Gal(b1-4)GlcNAc(b1-4)]Man(a1-3)[Gal(b1-4)GlcNAc(b1-2)[Gal(b1-4)GlcNAc(b1-6)]Man(a1-6)]Man(b1-4)GlcNAc(b1-4)GlcNAc
How it was run: as §1

[12] = target: Gal(b1-4)GlcNAc(b1-2)[Gal(b1-4)GlcNAc(b1-4)]Man(a1-3)[GlcNAc(b1-4)][Gal(b1-4)GlcNAc(b1-2)Man(a1-6)]Man(b1-4)GlcNAc(b1-4)GlcNAc
How it was run: as §1

[13] = target: Gal(b1-4)GlcNAc(b1-2)[Gal(b1-4)GlcNAc(b1-4)]Man(a1-3)[GlcNAc(b1-4)][Gal(b1-4)GlcNAc(b1-2)[Gal(b1-4)GlcNAc(b1-6)]Man(a1-6)]Man(b1-4)GlcNAc(b1-4)GlcNAc
How it was run: as §1

[14] = target: Gal(b1-4)GlcNAc(b1-2)[Gal(b1-4)GlcNAc(b1-4)]Man(a1-3)[GlcNAc(b1-4)][Gal(b1-4)GlcNAc(b1-2)[Gal(b1-4)GlcNAc(b1-6)]Man(a1-6)]Man(b1-4)GlcNAc(b1-4)[Fuc(a1-6)]GlcNAc
How it was run: as §1

[15] = target: Gal(b1-4)GlcNAc(b1-2)[Gal(b1-4)GlcNAc(b1-6)]Man(a1-6)[Gal(b1-4)GlcNAc(b1-2)Man(a1-3)]Man(b1-4)GlcNAc(b1-4)GlcNAc
How it was run: as §1

[16] = target: Gal(b1-4)GlcNAc(b1-2)[Gal(b1-4)GlcNAc(b1-6)]Man(a1-6)[Gal(b1-4)GlcNAc(b1-2)Man(a1-3)]Man(b1-4)GlcNAc(b1-4)[Fuc(a1-6)]GlcNAc
How it was run: as §1

[17] = target: Gal(b1-4)GlcNAc(b1-2)[Gal(b1-4)GlcNAc(b1-6)]Man(a1-6)[GlcNAc(b1-4)][Gal(b1-4)GlcNAc(b1-2)Man(a1-3)]Man(b1-4)GlcNAc(b1-4)GlcNAc
How it was run: as §1

[18] = target: Gal(b1-4)GlcNAc(b1-2)[Gal(b1-4)GlcNAc(b1-6)]Man(a1-6)[GlcNAc(b1-4)][Gal(b1-4)GlcNAc(b1-2)[Gal(b1-4)GlcNAc(b1-4)]Man(a1-3)]Man(b1-4)GlcNAc(b1-4)[Fuc(a1-6)]GlcNAc
How it was run: as §1

[19] = target: Gal(b1-4)GlcNAc(b1-3)Gal(b1-3)GalNAc
How it was run: as §1

B1: Siglec-7-SA-PE-180 (Homo sapiens), Q9Y286 (protein)
chain: MLLLLLLPLLWGRERVEGQKSNRKDYSLTMQSSVTVQEGMCVHVRCSFSYPVDSQTDSDPVHGYWFRAGNDISWKAPVATNNPAWAVQEETRDRFHLLGDPQTKNCTLSIRDARMSDAGRYFFRMEKGNIKWNYKYDQLSVNVTALTHRPNILIPGTLESGCFQNLTCSVPWACEQGTPPMISWMGTSVSPLHPSTTRSSVLTLIPQPQHHGTSLTCQVTLPGAGVTTNRTIQLNVSYPPQNLTVTVFQGEGTASTALGNSSSLSVLEGQSLRLVCAVDSNPPARLSWTWRSLTLYPSQPSNPLVLELQVHLGDEGEFTCRAQNSLGSQHVSLNLSLQQEYTGKMRPVSGVLLGAVGGAGATALVFLSFCVIFIVVRSCRKKSARPAADVGDIGMKDANTIRGSASQGNLTESWADDNPRHHGLAAHSSGEEREIQYAPLSFHKGEPQDLSGQEATNNEYSEIKIPK
- glycan array binding signal (z-score) [1]: -0.508
- glycan array binding signal (z-score) [2]: -0.264
- glycan array binding signal (z-score) [3]: -0.228
- glycan array binding signal (z-score) [4]: -0.435
- glycan array binding signal (z-score) [5]: -0.065
- glycan array binding signal (z-score) [6]: 0.048
- glycan array binding signal (z-score) [7]: -0.333
- glycan array binding signal (z-score) [8]: -0.046
- glycan array binding signal (z-score) [9]: -0.239
- glycan array binding signal (z-score) [10]: -0.13
- glycan array binding signal (z-score) [11]: -0.443
- glycan array binding signal (z-score) [12]: -0.381
- glycan array binding signal (z-score) [13]: -0.496
- glycan array binding signal (z-score) [14]: -0.261
- glycan array binding signal (z-score) [15]: -0.427
- glycan array binding signal (z-score) [16]: 0.049
- glycan array binding signal (z-score) [17]: -0.412
- glycan array binding signal (z-score) [18]: -0.249
- glycan array binding signal (z-score) [19]: -0.464
